Experimental findings from a collection of fitness landscapes (doi:10.1126/science.1257360) are described below.

The other results are listed elsewhere or left out.

The chains are these.
B1: PhoQ; a variant is named by its letters at X, in order, P23837 (parent)
chain: MKKLLRLFFPLSLRVRFLLATAAVVLVLSLAYGMVALIGYSVSFDKTTFRLLRGESNLFYTLAKWENNKLHVELPENIDKQSPTMTLIYDENGQLLWAQRDVPWLMKMIQPDWLKSNGFHEIEADVNDTSLLLSGDHSIQQQLQEVREDDDDAEMTHSVAVNVYPATSRMPKLTIVVVDTIPVELKSSYMVWSWFIYVLSANLLLVIPLLWVAAWWSLRPIEALAKEVRELEEHNRELLNPATTRELTSLVRNLNRLLKSERERYDKYRTTLTDLTHSLKTPLXXLQXXLRSLRSEKMSVSDAEPVMLEQISRISQQIGYYLHRASMRGGTLLSRELHPVAPLLDNLTSALNKVYQRKGVNISLDISPEISFVGEQNDFVEVMGNVLDNACKYCLEFVEISARQTDEHLYIVVEDDGPGIPLSKREVIFDRGQRVDTLRPGQGVGLAVAREITEQYEGKIVAGESMLGGARMEVIFGRQHSAPKDE

The test covers variants of B1. In words: enrichment ratio after two sorts for PhoP signalling (ratio (wild type AVST 3.29)); higher = more functional. Particulars: with PhoP (E. coli).
Consider CYFR, for which the enrichment ratio is at most 0.25. As for CGTL, the enrichment ratio was at most 0.25. For NRTC the value was at most 0.25; for YPRK, at most 0.25; for LHNV, at most 0.25.

For PDMP, the enrichment ratio is at most 0.25. For DDGA the value was at most 0.25.

As to ECRW, the enrichment ratio was at most 0.25. For DTGG the value was at most 0.25; for DVMT, at most 0.25. The result for MQTV reads 3.21; that for GSMY, 3.19. For YPAF the value was at most 0.25; for GMRW, at most 0.25.

As to SCSF, the enrichment ratio came out at 9.85. The result for FGSA reads at most 0.25. In the case of FERD, the enrichment ratio was at most 0.25. For QKAR the value was at most 0.25. For KHIH the value was at most 0.25. For LYGE the value was at most 0.25; for WKDT, at most 0.25.

As to WEEA, the enrichment ratio was at most 0.25.

As to PKHQ, the enrichment ratio was at most 0.25. For DHML the value was at most 0.25; for YFRW, at most 0.25. For NERD the value was at most 0.25; for DWTW, at most 0.25. For NDNI the value was at most 0.25. KLHS: the enrichment ratio was at most 0.25. The result for YNCC reads at most 0.25; that for YMHW, at most 0.25. The result for VRSC reads at most 0.25; that for PMCM, at most 0.25. For GQPI the value was at most 0.25; for KCIS, at most 0.25; for PGAM, at most 0.25. Take GIDG: the enrichment ratio is at most 0.25.

SPVE: the enrichment ratio is at most 0.25.

As for QTCH, the enrichment ratio was at most 0.25. For NIYW the value was at most 0.25. Turning to IYLY, the enrichment ratio is at most 0.25.

With VLMI, the enrichment ratio is at most 0.25. The result for SIRP reads 0.347; that for YTHR, at most 0.25.

Regarding LWED, the enrichment ratio is at most 0.25. With VACR, the enrichment ratio was at most 0.25. The result for SWYT reads at most 0.25; that for SCYH, at most 0.25; that for IWQQ, at most 0.25. For INFT the value was at most 0.25; for MYHY, at most 0.25; for TCWY, at most 0.25. For IFCA the value was at most 0.25. Regarding MSWH, the enrichment ratio was determined as 0.619. For ETCL the value was at most 0.25. For WKEW the value was at most 0.25; for FPCF, at most 0.25. For SQKM the value was at most 0.25; for MQSR, at most 0.25. With MFDT, the enrichment ratio is at most 0.25. The result for ANNS reads 12.9; that for MENI, at most 0.25. With LTHE, the enrichment ratio is at most 0.25. On to AESQ, for which the enrichment ratio is 4.68. The result for ENLR reads at most 0.25; that for AHYC, at most 0.25. The result for LRTW reads at most 0.25. The result for QDGE reads at most 0.25; that for IRMH, at most 0.25. In the case of IQVQ, the enrichment ratio is at most 0.25. With PNQF, the enrichment ratio was determined as 1.11.

Regarding WRPA, the enrichment ratio was at most 0.25. For TPQS the value was at most 0.25. The result for FYCS reads at most 0.25; that for FMMM, 0.302. On to DHNE, for which the enrichment ratio was at most 0.25. The result for RADN reads at most 0.25. On to TKHI, for which the enrichment ratio was at most 0.25. The result for HVNF reads at most 0.25. For FRQL the value was at most 0.25.

For QKPW, the enrichment ratio was at most 0.25.

In the case of RYLN, the enrichment ratio was at most 0.25. For DAQP the value was at most 0.25. The result for SAHC reads at most 0.25; that for RCEL, at most 0.25. The result for DTRC reads at most 0.25; that for LQSP, at most 0.25; that for FNFT, at most 0.25.

For the variant PMAY, the enrichment ratio was at most 0.25. The result for PYWC reads at most 0.25; that for SNTA, 2.79; that for AEWR, at most 0.25. For PSFE the value was at most 0.25. For QDDH, the enrichment ratio is at most 0.25. For PNRG the value was at most 0.25; for DELQ, at most 0.25; for QYDK, at most 0.25. The result for WFNT reads at most 0.25; that for FIHR, at most 0.25.

On to SEQS, for which the enrichment ratio stood at 6.91.

For the variant WTTF, the enrichment ratio is at most 0.25. Consider VAMY, for which the enrichment ratio is at most 0.25. As for LPMT, the enrichment ratio is at most 0.25.

EQIH: the enrichment ratio is at most 0.25.

With NHVP, the enrichment ratio was at most 0.25. For VMNA the value was at most 0.25; for DFVV, at most 0.25; for LAYR, at most 0.25. For MEYG the value was 9.72; for QAHP, at most 0.25. In the case of AHYI, the enrichment ratio is at most 0.25. For YHGV the value was at most 0.25; for PLTY, at most 0.25; for FSWN, at most 0.25. For VKHV the value was at most 0.25; for SYDG, at most 0.25.

Consider KIQH, for which the enrichment ratio is at most 0.25. The result for SIPH reads at most 0.25; that for MSSA, 0.453.

In the case of TSQH, the enrichment ratio stood at 8.47. In the case of NSMF, the enrichment ratio is at most 0.25.

In the case of INPF, the enrichment ratio is at most 0.25. For LRCY the value was at most 0.25; for WNTL, at most 0.25. The result for TFWR reads at most 0.25; that for WTKR, at most 0.25; that for RKVP, at most 0.25. The result for IVFS reads at most 0.25; that for RMRY, at most 0.25; that for KTTH, at most 0.25. Turning to VEGA, the enrichment ratio was at most 0.25.

With RSCW, the enrichment ratio was at most 0.25. With EMDD, the enrichment ratio is at most 0.25.

With FAAS, the enrichment ratio is at most 0.25. Regarding SRYI, the enrichment ratio was at most 0.25. The result for SDRQ reads at most 0.25. For HKED the value was at most 0.25. The result for SHRN reads at most 0.25; that for WNLM, at most 0.25; that for MITR, at most 0.25.

Turning to IYMW, the enrichment ratio was at most 0.25. For RVYN the value was at most 0.25; for DFRN, at most 0.25; for VGYH, at most 0.25. The result for DVHG reads at most 0.25; that for QNGW, at most 0.25. The result for HYLI reads at most 0.25; that for FLFF, at most 0.25. Take TQFP: the enrichment ratio is at most 0.25. For ISFL the value was at most 0.25; for TELT, 14.5.

As to YAAS, the enrichment ratio was at most 0.25. Turning to EIWH, the enrichment ratio was at most 0.25.
